Some of the results follow.

This assay has as its system PF3D7_0420300 AP2 domain 1 (GST-tagged). Description: gcPBM binding intensity (ln(normalized median fluorescence intensity)); higher = stronger DNA binding. In short, it runs like this:
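Probes on an Agilent 4 × 180k array were primer-extended, double-stranded and 36 bp long, taken from intergenic genomic regions, with negative controls added. GST-tagged P. falciparum DNA-binding domains from E. coli, about 25 μg on average, were applied to the array for 1 h in 1× PBS containing 1% milk, 0.2 mg/ml BSA, 0.5% salmon testes DNA and 0.03% Triton X-100. Binding intensity, obtained after Alexa488 anti-GST antibody detection and a 488 nm scan, is the highest Masliner-normalised natural-log median intensity across replicate spots of either probe orientation.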
With “GTACCTATAAATATTACACACATTTTCATTTTTAAC [CACACA_site7022]”, the “gcPBM binding intensity (ln)” value came out at 9.75.
“CTTAAAAACAAAAATGCACACATAATAAGCATATGT [CACACA_site9149]”: the “gcPBM binding intensity (ln)” value was 9.43.
The same measure for “ATTAAACTCATTAAGAGTACAGATAACATTAAAGTA [XGTACX_site8697]”: 9.19.
The same measure for “TGAAATTAGATATATACACACATATAGATTTATATG [CACACA_site7619]”: 9.44; for “AATATCACATTCCACGGTACACACTAAAAGAAAAAT [XGTACX_site7653]”: 9.75; for “ATAAATACGATTAATTAGGTTTGTATAAATTAAATT [GTGCAC_negctrl_site635]”: 9.26.
On to “TCATGTAGTAAAAACTGTACAAATTATTTATCATGT [XGTACX_site1727]”, for which the “gcPBM binding intensity (ln)” value amounted to 9.24.
In the case of “ATAACTTTTGCGCGTACACACATTTATCCTCTTTAT [CACACA_site209]”, the “gcPBM binding intensity (ln)” value stood at 9.96.
As for “CTATAATAGAAGTGTACACACATATTTATGTCTGTA [CACACA_site7462]”, the “gcPBM binding intensity (ln)” value stood at 9.45.
“TTTTCTTTATTATAATGTACTCACAAATAAATATAA [XGTACX_site7298]”: the “gcPBM binding intensity (ln)” value was found to be 8.98.
The same measure for “TTTCATTTTAGAAGTACACACAAAAAATAAAATAAT [CACACA_site2141]”: 9.52; for “ATAGGATGTTTGCACTGTACCAAAAAATGAGCTGCA [XGTACX_site2825]”: 9.09.
The same measure for ACTTTTTTGAACAACGTGCACGTATTCATAACAAAA: 8.96; for “ATCAGATATATATATTGTACATTTATATATAAATCA [XGTACX_site1960]”: 9.12.
The same measure for “ATTAAAAATTATATTTTATAAAAATTAAAAGAAATA [CACACA_negctrl_site65]”: 8.81; for “AAAGTATACAATGACGCATGCATATATATATACATA [TGCATGCA_site429]”: 9.35; for “ATTTATTTATCTAGCTATTCACCATTTTCTTTTGTT [CACACA_negctrl_site1259]”: 9.6.
For “TGTCCTTATTGGCACACACACATATAAGAAATTTAA [CACACA_site5724]”, the “gcPBM binding intensity (ln)” value amounted to 9.55.
The same measure for “TATTTTTTCTTAAACACACACATATAGATTTATAAC [CACACA_site7354]”: 9.5; for “TTTTTTAAAGCCTGTTCATCATCCTTACCTATCAAC [GTGCAC_negctrl_site452]”: 9.08; for “ATATGGAATGATCATAGTACATAATTTAAAATTTTA [XGTACX_site3568]”: 9.19.
With “CTAATTCGTATATGCTGTACCTTTTTCTTACGACTA [XGTACX_site4392]” the figure was 9.51; with “ACCCTATTTATATATACACACACATATATAAATAAA [CACACA_site8980]”, 9.74.
As for “AACATATATAATATTTGTACTTATATACAAAATATG [XGTACX_site7502]”, the “gcPBM binding intensity (ln)” value amounted to 9.16.
The same measure for “TAGAAAATCAGTTAAACACACACATAAAAAAAAAAA [CACACA_site8933]”: 9.78.
Turning to “TATATAATATATATATGTACACATTTGCAAACAATG [XGTACX_site6941]”, the “gcPBM binding intensity (ln)” value was determined as 9.25.
The same measure for “TTCTTATTTGTACTAGTGCAATAGAAAATAAATAAA [GTGCAC_site9731]”: 8.96.
With “GAATATGTAAAGAAAGGTACACATGAAAATATGTGT [XGTACX_site446]” the figure was 9.42; with “ATGAATTAATCTAATCGTACAATAAGCATTATTATA [XGTACX_site2571]”, 9.03.
Take “TGTACCTACAAAATATGATATATTTTTATAAATTGT [XGTACX_negctrl_site498]”: the “gcPBM binding intensity (ln)” value was 9.09.
Take “TATATATATATACATACATGCATATATATATATATA [TGCATGCA_site513]”: the “gcPBM binding intensity (ln)” value came out at 9.
In the case of “AATATATCTTATTTAACACACACAAAGAAAATAGAA [CACACA_site9242]”, the “gcPBM binding intensity (ln)” value worked out at 9.98.
For the sequence “TGTTATCAGAAAGCACGTACATATAATTATATATTC [XGTACX_site4188]”, the “gcPBM binding intensity (ln)” value amounted to 9.28.
The same measure for “AATACAATAAAAAAAAGTACACATGTATAAAAAATT [XGTACX_site8270]”: 9.82; for “AAAAAAAAAAAAAGTACACACATACAGATAAATATA [CACACA_site5067]”: 9.66.
With “ATAAATTGATTCAACACACACATATGTAGGAAGTTA [CACACA_site3253]” the figure was 9.63; with “TTTTTTAAATTGGTAGTGCAATATGATTGAACAAAA [GTGCAC_site9715]”, 8.95.
For “GGGTATACCAATATAACACACATATATATATAATAT [CACACA_site450]”, the “gcPBM binding intensity (ln)” value was 9.51.
The same measure for “AAATTATTAAAAAAGTGTACATATTTTTATAATACC [XGTACX_site5610]”: 9.19; for “ATAAGCATACATATTACACACATATAACATCTATAT [CACACA_site7219]”: 9.68.
With “TTAATCAAATTACTATGTACATAAAACATATAAGAA [XGTACX_site381]” the figure was 9.28; with “TATTTTTTTTCAAAAAAGTTTATTTAGAACTAAATA [XGTACX_negctrl_site487]”, 8.6; with “AAATATACATACATATGTACATATATATATATATAT [XGTACX_site8202]”, 9.21.
Regarding ACAATAAAGAACAGTATGCACTTTTATGCATGCGTA, the “gcPBM binding intensity (ln)” value was 9.26.
For “ATAGTTAAAAAAAAAAAAAAAAAAAAAAGAGAGAGA [CACACA_negctrl_site1307]”, the “gcPBM binding intensity (ln)” value was 9.21.

Values taken from the supplement of paper PMC11417369.
